Experimental data reported in the supplement of paper PMC4723716.
± gives the uncertainty stated by the source. Over roughly 9,900 compounds, “viability index relative to DMSO control” has its median near 1; the lowest 2% begin near 0.85. The list shows a part of the results.

System: Plasmodium falciparum NF54 stage V gametocytes
Assay: viability index relative to DMSO control (fraction); higher = less gametocyte killing
Conditions: 2.5 µM, incubation time: 72 h
Outline: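 In 1,536-well plates, 10 µl of serum-free medium holding P. falciparum NF54 stage V gametocytes (0.75% gametocytemia, 1.25% hematocrit) received compound at 2.5 µM for 72 hr at 37°C in low oxygen. After one to two hours with 3 µl of 2.5 µM MitoTracker Red CMXRos containing 0.13% saponin, red particles of 20–70 µm2 were counted in a single field per well. Viability index is reported as the particle count over the plate mean of wells treated with solvent only.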

[1] = library set: Broad Institute DOS
[2] = library set: Broad Institute Blood Stage

Row | SMILES | viability index [1] | viability index [2]
1 | C[C@@H]1CN([C@@H](C)CO)S(=O)(=O)c2ccc(C#CC3(O)CCCC3)cc2O[C@@H]1CN(C)C(=O)Nc1cccc(F)c1 | 0.955 ± 0.018 | –
2 | Cc1ccc(S(=O)(=O)N(C)C[C@H]2OCCCC[C@@H](C)Oc3ccc(NC(=O)c4ccncc4)cc3C(=O)N([C@@H](C)CO)C[C@H]2C)cc1 | 0.903 ± 0.055 | –
3 | O=C(N[C@H]1C=C[C@@H](CC(=O)N2CCC(Cc3ccccc3)CC2)O[C@@H]1CO)c1cnccn1 | 1.042 ± 0.0049 | –
4 | Cc1noc(C)c1S(=O)(=O)N(C)C[C@H]1Oc2c(NS(=O)(=O)c3cn(C)cn3)cccc2C(=O)N([C@H](C)CO)C[C@@H]1C | 1.05 ± 0.083 | –
5 | COc1ccc(CN2[C@@H](CO)[C@@H]3c4ccccc4NC[C@@H]32)cc1 | 1.05 ± 0.071 | –
6 | O=C(O)C[C@@H]1C=C[C@@H](NC(=O)Nc2cc(F)ccc2F)[C@H](CO)O1 | 0.96 ± 0.091 | –
7 | CCCC(=O)N1C[C@@]2(C1)CN(Cc1cccnc1)[C@H](CO)c1[nH]c3cc(OC)ccc3c21 | 1.06 ± 0.064 | –
8 | C[C@H]1CN([C@@H](C)CO)C(=O)c2cc(NS(=O)(=O)c3cn(C)cn3)ccc2O[C@H]1CN(C)C(=O)Nc1cccc2ccccc12 | 0.974 ± 0.062 | –
9 | OC[C@H]1[C@@H](c2ccc(-c3cccnc3)cc2)[C@@H]2CN(Cc3ccccn3)CCCCN12 | 0.98 ± 0.036 | –
10 | CC(C)(O)C#Cc1cccc(-c2nc(C(=O)O)cc3c2[C@H](CCO)N(S(=O)C(C)(C)C)C3)c1 (stereo partly specified) | 0.953 ± 0.049 | –
11 | COc1cccc(C(=O)N2C[C@H]3[C@@H](c4ccccc42)[C@@H](CO)N3C(=O)c2cccc(F)c2)c1 | 1.02 ± 0.075 | –
12 | O=C(c1cnccn1)N1CC(=O)N2[C@H](C1)[C@H](c1ccc(C#CC3CC3)cc1)[C@@H]2CO | 1.0181 ± 0.0005 | –
13 | CCS(=O)(=O)Nc1ccc2c(c1)C(=O)N(C)[C@H]1CC[C@H](CC(=O)NCc3ccc(OC)cc3)O[C@H]1CO2 | 0.947 ± 0.11 | –
14 | Cc1noc(C)c1S(=O)(=O)N(C)C[C@@H]1OCc2ccccc2-c2c(n(C)c3ccccc23)C(=O)N([C@@H](C)CO)C[C@@H]1C | 1.03 ± 0.024 | –
15 | O=C1N[C@H](c2ccccc2)COCc2cn(nn2)CC[C@H]1Cc1ccc(C(F)(F)F)cc1 | 1.04 ± 0.027 | –
16 | C[C@H](NC(=O)C[C@@H]1C[C@@H]2c3cc(NS(=O)(=O)c4ccc(F)cc4)ccc3O[C@@H]2[C@@H](CO)O1)c1ccccc1 | 1.07 ± 0.024 | –
17 | CN(C)CC(=O)N1C[C@H]2[C@@H](c3ccccc31)[C@@H](CO)N2C(=O)c1ccccn1 | 1.048 ± 0.004 | –
18 | COc1ccc2c3c([C@H](CO)NC[C@]33CCN(CC4CCCC4)CC3)n(C)c2c1 | – | 0.986 ± 0.023
19 | N#C[C@@H]1[C@@H](c2ccc(-c3cncnc3)cc2)[C@H](CO)N1C(=O)Cc1ccccc1 | 1.05 ± 0.015 | –
20 | C[C@@H]1CN([C@H](C)CO)C(=O)c2cc(-c3ccc(F)cc3)cnc2O[C@H]1CN(C)S(C)(=O)=O | 1.1 ± 0.046 | –
21 | CC(C)[C@H]1C/C=C/C[C@@H](C)Oc2ccccc2C(=O)N(C)[C@H](Cc2ccccc2)C(=O)N1.CC(C)[C@H]1C/C=C\C[C@@H](C)Oc2ccccc2C(=O)N(C)[C@H](Cc2ccccc2)C(=O)N1 | 1.08 ± 0.087 | –
22 | CO[C@@H]1CN(C)C(=O)c2cc(NS(=O)(=O)c3cn(C)cn3)ccc2OC[C@H](C)NC[C@@H]1C | 0.949 ± 0.054 | –
23 | O=C(C[C@H]1CC[C@@H](NS(=O)(=O)c2ccccc2F)[C@H](CO)O1)NCCCN1CCOCC1 | 0.967 ± 0.05 | –
24 | C[C@@H](NC(=O)C[C@H]1C=C[C@@H](NC(=O)c2cccnc2)[C@@H](CO)O1)c1ccccc1 | 0.959 ± 0.11 | –

Row | SMILES | viability index [1] | viability index [2]
25 | CO[C@H]1CN(C)C(=O)c2ccc(NC(C)=O)cc2OC[C@@H](C)N(Cc2cccc(F)c2)C[C@@H]1C | 1.07 ± 0.058 | –
26 | CCCC#Cc1ccc2c(c1)O[C@H](CN(C)Cc1ccccn1)[C@@H](C)CN([C@H](C)CO)S2(=O)=O | 0.983 ± 0.041 | –
27 | C[C@@H]1CN([C@H](C)CO)C(=O)CCCn2cc(nn2)CO[C@@H]1CN(C)S(=O)(=O)c1ccc(-n2cccn2)cc1 | 1.057 ± 0.0017 | –
28 | O=C(C[C@@H]1CC[C@@H](NC(=O)CN2CCOCC2)[C@H](CO)O1)NC1CCC1 | 1.08 ± 0.059 | –
29 | O=C1N[C@H](c2ccccc2)COCc2cn(nn2)CC[C@@H]1Cc1ccc(C(F)(F)F)cc1 | 1.01 ± 0.11 | –
30 | COCC(=O)N1[C@@H](CO)[C@H](c2ccc(-c3ccccc3OC)cc2)C12CN(C(C)=O)C2 | 0.99 ± 0.07 | –
31 | COc1ccc(-c2ccc([C@H]3[C@H]4CN(C(=O)Cc5ccccn5)CC(=O)N4[C@H]3CO)cc2)cc1 | 1.02 ± 0.093 | –
32 | CC(=O)N1[C@H](CO)[C@@H]2c3ccccc3N(S(=O)(=O)c3ccccc3C)C[C@@H]21 | 0.975 ± 0.1 | –
33 | CC(=O)N1[C@H](CO)[C@H](c2ccccc2)[C@H]1CN(C(=O)c1ccccc1F)C(C)C | 0.996 ± 0.048 | –
34 | CC(C)C#Cc1ccc([C@H]2[C@@H](CO)N3C(=O)CN(C(=O)NC4CCCC4)C[C@H]23)cc1 | 0.939 ± 0.083 | –
35 | CS(=O)(=O)N1[C@H](C#N)[C@H](c2ccc(C#Cc3cccc(F)c3)cc2)[C@H]1CO | 0.9841 ± 0.0042 | –
36 | CC(C)[C@H]1COCn2nncc2CC[C@H](Cc2ccc(Cl)cc2)C(=O)N1 | 1.07 ± 0.026 | –
37 | COc1ccc(CN(C)C[C@@H]2OCCCC[C@H](C)Oc3ccc(NC(=O)C4CCCCC4)cc3C(=O)N([C@@H](C)CO)C[C@@H]2C)cc1 | 1 ± 0.02 | –
38 | COc1cccc(-c2ccc3c(c2)[C@@H]2[C@@H](CCN2S(=O)(=O)c2cn(C)cn2)[C@H](CO)N3)c1 | 1.09 ± 0.055 | –
39 | CN1c2ccc(Br)cc2[C@H]2[C@H](CCN2C(=O)CN2CCOCC2)[C@@H]1CO | 1.05 ± 0.077 | –
40 | CS(=O)(=O)N1[C@H](CO)[C@@H](c2ccccc2)C12CN(Cc1ccccn1)C2 | 1.07 ± 0.07 | –
41 | CC(=O)N1[C@H](CO)[C@@H](c2ccccc2)C12CN(Cc1ccc(Cl)cc1)C2 | 1.06 ± 0.056 | –
42 | c1cc(-c2ccc([C@@H]3[C@H]4CNC[C@@H]3N4Cc3nccs3)cc2)ccn1 | 1.04 ± 0.092 | –
43 | Cc1noc(C)c1NC(=O)N(C)C[C@@H]1Oc2cc(C#CCN(C)C)ccc2S(=O)(=O)N([C@@H](C)CO)C[C@H]1C | 0.947 ± 0.18 | –
44 | COc1ccc(C#Cc2cccc(-c3nc(C(=O)Nc4ccc(-c5ccccc5)cc4)cc4c3[C@@H](CCO)N(S(=O)C(C)(C)C)C4)c2)cc1OC (stereo partly specified) | 1.016 ± 0.0075 | –
45 | COc1ccc2c3c([C@@H](CO)N(C[C@]33CCN(CC3)C(=O)Nc3cccc(F)c3)C(=O)C3CCCC3)n(C)c2c1 | – | 0.822 ± 0.039
46 | N#Cc1cccc(-c2ccc([C@@H]3[C@@H]4CN(C(=O)C5CCOCC5)C[C@H]3N4)cc2)c1 | 1 ± 0.072 | –
47 | O=C(C[C@H]1C[C@H]2c3cc(NS(=O)(=O)c4ccc(F)cc4)ccc3O[C@H]2[C@H](CO)O1)N1CCc2ccccc2C1 | 0.861 ± 0.059 | –
48 | COc1cccc(C#Cc2ccc([C@@H]3[C@H](C#N)N[C@H]3CO)cc2)c1 | 1.01 ± 0.066 | –

Row | SMILES | viability index [1] | viability index [2]
49 | CC(C)NC(=O)N1[C@@H](CO)[C@H](c2ccccc2)[C@@H]1CN(C)C(=O)c1cccnc1 | 1.08 ± 0.036 | –
50 | CS(=O)(=O)N1[C@H](C#N)[C@@H](c2ccc(/C=C/c3ccccc3)cc2)[C@H]1CO | 1.11 ± 0.044 | –
51 | CN1C(=O)c2cc(NC(=O)c3cnccn3)ccc2OC[C@H]2O[C@@H](CC(=O)NCC3CCCCC3)CC[C@H]21 | 0.994 ± 0.031 | –
52 | O=C(CC1CC1)N1CC(=O)N2[C@H](CO)[C@H](c3ccc(C#Cc4cccc(F)c4)cc3)[C@H]2C1 | 0.998 ± 0.045 | –
53 | O=C(C[C@@H]1CC[C@H]2[C@@H](COC[C@H](O)CN2CC2CCOCC2)O1)NCc1ccc(Cl)cc1 | 1.13 ± 0.074 | –
54 | COCC(=O)Nc1ccc2c(c1)C(=O)N(C)[C@H]1CC[C@H](CC(=O)N3CCc4ccccc4C3)O[C@H]1CO2 | 1.01 ± 0.041 | –
55 | CCCC(=O)Nc1ccc2c(c1)OC[C@@H](C)NC[C@H](C)[C@H](OC)CN(C)C2=O | 0.984 ± 0.04 | –
56 | C[C@@H]1CN([C@H](C)CO)C(=O)Cc2cc(NC(=O)CCCCCC(=O)Nc3ccccc3N)ccc2O[C@@H]1CN(C)S(=O)(=O)c1cccs1 | 1.0088 ± 0.00029 | –
57 | COC(=O)C[C@@H]1C[C@H]2c3cc(NC(=O)C4CCOCC4)ccc3O[C@H]2[C@@H](CO)O1 | 1.06 ± 0.051 | –
58 | CO[C@H]1CN(C)C(=O)c2cc(NS(C)(=O)=O)ccc2OC[C@@H](C)N(Cc2cncnc2)C[C@H]1C | 1.058 ± 0.0054 | –
59 | N#C[C@H]1[C@@H](c2ccccc2C2=CCCC2)[C@H](CO)N1C(=O)c1cccc(F)c1 | 1.12 ± 0.075 | –
60 | CC(C)N(C[C@H]1[C@H](c2ccccc2)[C@H](CO)N1S(C)(=O)=O)C(=O)CN(C)C | 1 ± 0.015 | –
61 | Cc1ccccc1-c1cnc2c(c1)C(=O)N([C@@H](C)CO)C[C@@H](C)[C@H](CN(C)Cc1ccccc1F)O2 | 1.06 ± 0.051 | –
62 | COC(=O)[C@@H]1[C@@H](CO)[C@@H]2Cn3c(ccc(-c4ccncc4)c3=O)[C@@H]2N1Cc1ccccc1F | 1.06 ± 0.018 | –
63 | COCC(=O)N1[C@@H](C#N)[C@@H](c2ccccc2-c2ccccc2F)[C@@H]1CO | 1.12 ± 0.065 | –
64 | C[C@@H]1CCCCO[C@@H](CN(C)S(=O)(=O)c2ccccc2)[C@@H](C)CN([C@@H](C)CO)C(=O)c2cc(NC(=O)Nc3ccc4c(c3)OCO4)ccc2O1 | 0.983 ± 0.084 | –
65 | COCC(=O)Nc1ccc2c(c1)[C@H]1C[C@@H](CC(=O)N[C@H](C)c3ccccc3)O[C@@H](CO)[C@H]1O2 | 1.05 ± 0.075 | –
66 | O=C(C[C@H]1CC[C@H]2[C@@H](COC[C@@H](O)CN2Cc2nccs2)O1)N1CCC(Cc2ccccc2)CC1 | 1.0462 ± 4.2e-05 | –
67 | O=C(NCC[C@H]1CC[C@@H](NC(=O)c2ccccc2F)[C@H](CO)O1)c1cnccn1 | 0.985 ± 0.093 | –
68 | C[C@H](CO)N1C[C@H](C)[C@H](CN(C)C(=O)Nc2cccc3ccccc23)Oc2ccc(NS(=O)(=O)c3cn(C)cn3)cc2C1=O | 0.934 ± 0.099 | –
69 | C[C@@H]1CN([C@H](C)CO)C(=O)c2ccccc2-c2ccccc2CO[C@@H]1CN(C)S(=O)(=O)c1cccs1 | 0.984 ± 0.08 | –
70 | C/C=C/c1ccc([C@H]2[C@@H](CO)N[C@@H]2CN(CC(C)C)C(=O)c2ccccn2)cc1 | 0.916 ± 0.018 | –
71 | C[C@H]1CN([C@@H](C)CO)C(=O)CCCn2nncc2CO[C@@H]1CN(C)C(=O)CCC(F)(F)F | 1.057 ± 0.0082 | –
